Test results as given in paper PMC12820563.
Some of the results follow. The list includes weakly bound sequences.

target: T1, MBP-FoxP3dN (UniProt Q99JB6); assay: PD-seq (MBP pull-down with sequencing); settings: 20 mM Tris-HCl pH 7.5, 100 mM NaCl, 1.5 mM MgCl2, 0.4 uM protein, 0.1 uM dsDNA library, 30 min, room temperature, amylose pull-down; high values mean tight binding; double strand, one strand shown
T1 sequence: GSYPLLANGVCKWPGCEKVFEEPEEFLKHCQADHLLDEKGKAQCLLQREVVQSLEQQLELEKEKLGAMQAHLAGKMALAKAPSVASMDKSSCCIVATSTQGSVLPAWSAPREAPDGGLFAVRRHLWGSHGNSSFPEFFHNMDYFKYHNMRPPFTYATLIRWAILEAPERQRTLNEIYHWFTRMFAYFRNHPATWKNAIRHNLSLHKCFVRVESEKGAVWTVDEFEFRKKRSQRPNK

Row | Sequence | binding signal (RPM ratio (pull-down/input))
1 | GATGATTGTTCTCCCAGCTGATGAATTGTTGCGATCGAGTAAACAAATTTTCCTAATCTTTCTGTTCAAGCGCCATCTAC | 2.69
2 | GATGATTGTTCTCCCAGCTGATGAATTCGGTATTTCGAGTAAACAAATTTTCCTAATCTTTCTGTTCAAGCGCCATCTAC | 2.2
3 | GATGATTGTTCTCCCAGCTGATGAATTCCCCGACTCGAGTAAACAAATTTTCCTAATCTTTCTGTTCAAGCGCCATCTAC | 0.178
4 | GATGATTGTTCTCCCAGCTGATGAATTGGAGCCCTCGAGTAAACAAATTTTCCTAATCTTTCTGTTCAAGCGCCATCTAC | 0.358
5 | GATGATTGTTCTCCCAGCTGATGAATTCTATAAATCGAGTAAACAAATTTTCCTAATCTTTCTGTTCAAGCGCCATCTAC | 0.267
6 | GATGATTGTTCTCCCAGCTGATGAATTTCCAAAGTCGAGTAAACAAATTTTCCTAATCTTTCTGTTCAAGCGCCATCTAC | 0.159
7 | GATGATTGTTCTCCCAGCTGATGAATTGACATGTTCGAGTAAACAAATTTTCCTAATCTTTCTGTTCAAGCGCCATCTAC | 0.701
8 | GATGATTGTTCTCCCAGCTGATGAATTAAGGGAGTCGAGTAAACAAATTTTCCTAATCTTTCTGTTCAAGCGCCATCTAC | 0.249
9 | GATGATTGTTCTCCCAGCTGATGAATTGAACACTTCGAGTAAACAAATTTTCCTAATCTTTCTGTTCAAGCGCCATCTAC | 0.455
10 | GATGATTGTTCTCCCAGCTGATGAATTTTAGTTATCGAGTAAACAAATTTTCCTAATCTTTCTGTTCAAGCGCCATCTAC | 1.33
11 | GATGATTGTTCTCCCAGCTGATGAATTGAAGGACTCGAGTAAACAAATTTTCCTAATCTTTCTGTTCAAGCGCCATCTAC | 0.282
12 | GATGATTGTTCTCCCAGCTGATGAATTATTCCGATCGAGTAAACAAATTTTCCTAATCTTTCTGTTCAAGCGCCATCTAC | 0.214
13 | GATGATTGTTCTCCCAGCTGATGAATTTAGAGTCTCGAGTAAACAAATTTTCCTAATCTTTCTGTTCAAGCGCCATCTAC | 1.35
14 | GATGATTGTTCTCCCAGCTGATGAATTTCAGAGCTCGAGTAAACAAATTTTCCTAATCTTTCTGTTCAAGCGCCATCTAC | 0.211
15 | GATGATTGTTCTCCCAGCTGATGAATTACTATCGTCGAGTAAACAAATTTTCCTAATCTTTCTGTTCAAGCGCCATCTAC | 0.509
16 | GATGATTGTTCTCCCAGCTGATGAATTTGCAGAGTCGAGTAAACAAATTTTCCTAATCTTTCTGTTCAAGCGCCATCTAC | 0.324

Row | Sequence | binding signal (RPM ratio (pull-down/input))
17 | GATGATTGTTCTCCCAGCTGATGAATTTGCTGGATCGAGTAAACAAATTTTCCTAATCTTTCTGTTCAAGCGCCATCTAC | 0.64
18 | GATGATTGTTCTCCCAGCTGATGAATTCCGACGATCGAGTAAACAAATTTTCCTAATCTTTCTGTTCAAGCGCCATCTAC | 0.285
19 | GATGATTGTTCTCCCAGCTGATGAATTTTTATCTTCGAGTAAACAAATTTTCCTAATCTTTCTGTTCAAGCGCCATCTAC | 0.326
20 | GATGATTGTTCTCCCAGCTGATGAATTTGCTGGCTCGAGTAAACAAATTTTCCTAATCTTTCTGTTCAAGCGCCATCTAC | 3
21 | GATGATTGTTCTCCCAGCTGATGAATTAGCGTAATCGAGTAAACAAATTTTCCTAATCTTTCTGTTCAAGCGCCATCTAC | 0.828
22 | GATGATTGTTCTCCCAGCTGATGAATTTAACTTTTCGAGTAAACAAATTTTCCTAATCTTTCTGTTCAAGCGCCATCTAC | 0.292
23 | GATGATTGTTCTCCCAGCTGATGAATTCTCCGTCTCGAGTAAACAAATTTTCCTAATCTTTCTGTTCAAGCGCCATCTAC | 0.248
24 | GATGATTGTTCTCCCAGCTGATGAATTCGCTCAATCGAGTAAACAAATTTTCCTAATCTTTCTGTTCAAGCGCCATCTAC | 0.255
25 | GATGATTGTTCTCCCAGCTGATGAATTGGTCTCATCGAGTAAACAAATTTTCCTAATCTTTCTGTTCAAGCGCCATCTAC | 0.414
26 | GATGATTGTTCTCCCAGCTGATGAATTACCTACGTCGAGTAAACAAATTTTCCTAATCTTTCTGTTCAAGCGCCATCTAC | 0.303
27 | GATGATTGTTCTCCCAGCTGATGAATTAAAACGATCGAGTAAACAAATTTTCCTAATCTTTCTGTTCAAGCGCCATCTAC | 0.283
28 | GATGATTGTTCTCCCAGCTGATGAATTACTCTTGTCGAGTAAACAAATTTTCCTAATCTTTCTGTTCAAGCGCCATCTAC | 0.317
29 | GATGATTGTTCTCCCAGCTGATGAATTTCATCATTCGAGTAAACAAATTTTCCTAATCTTTCTGTTCAAGCGCCATCTAC | 0.871
30 | GATGATTGTTCTCCCAGCTGATGAATTGCAAAGGTCGAGTAAACAAATTTTCCTAATCTTTCTGTTCAAGCGCCATCTAC | 0.459
31 | GATGATTGTTCTCCCAGCTGATGAATTCCCTGTCTCGAGTAAACAAATTTTCCTAATCTTTCTGTTCAAGCGCCATCTAC | 0.253
